Data from publication PMC10518940.
Results are given in words; binding and its absence hold for the method and conditions named. In cells and extracts the contact can be indirect. Some entries that bind do so weakly or less than the wild type.

Chains of the proteins cited; added tags and fusions are not shown.
UniProt P61073: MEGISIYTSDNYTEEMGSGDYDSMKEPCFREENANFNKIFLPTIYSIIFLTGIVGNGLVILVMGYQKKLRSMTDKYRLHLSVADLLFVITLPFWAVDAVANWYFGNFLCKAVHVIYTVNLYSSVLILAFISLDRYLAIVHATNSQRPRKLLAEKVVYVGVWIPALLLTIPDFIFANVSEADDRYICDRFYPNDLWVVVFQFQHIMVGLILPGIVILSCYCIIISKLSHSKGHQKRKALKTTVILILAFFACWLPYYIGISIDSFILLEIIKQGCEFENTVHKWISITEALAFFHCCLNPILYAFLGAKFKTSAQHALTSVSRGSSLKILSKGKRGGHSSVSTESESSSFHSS
UniProt P35372: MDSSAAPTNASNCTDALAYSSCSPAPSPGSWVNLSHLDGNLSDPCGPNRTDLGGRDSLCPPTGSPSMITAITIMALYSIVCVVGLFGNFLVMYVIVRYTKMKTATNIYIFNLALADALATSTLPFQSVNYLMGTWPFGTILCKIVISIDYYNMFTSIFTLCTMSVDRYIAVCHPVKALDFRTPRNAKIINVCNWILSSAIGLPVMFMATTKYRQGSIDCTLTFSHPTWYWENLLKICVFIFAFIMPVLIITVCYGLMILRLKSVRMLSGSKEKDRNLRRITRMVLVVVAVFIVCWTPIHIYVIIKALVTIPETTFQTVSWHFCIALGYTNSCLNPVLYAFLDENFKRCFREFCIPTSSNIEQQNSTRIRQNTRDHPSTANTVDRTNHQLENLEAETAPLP
UniProt Q92633: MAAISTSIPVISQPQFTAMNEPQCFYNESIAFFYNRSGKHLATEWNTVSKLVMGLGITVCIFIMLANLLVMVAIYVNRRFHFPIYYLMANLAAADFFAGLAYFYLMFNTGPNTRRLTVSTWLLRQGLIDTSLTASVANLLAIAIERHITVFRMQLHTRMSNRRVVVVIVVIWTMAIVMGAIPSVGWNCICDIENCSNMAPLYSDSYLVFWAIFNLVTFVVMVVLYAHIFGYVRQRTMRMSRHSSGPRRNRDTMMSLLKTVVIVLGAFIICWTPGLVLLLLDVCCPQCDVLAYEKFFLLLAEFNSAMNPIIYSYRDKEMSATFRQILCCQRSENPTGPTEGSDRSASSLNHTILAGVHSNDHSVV

What was measured:
[1] = molecular target: Flag-CXCR4-VC (human) (UniProt P61073); test: split reporter; BiFC: HEK293A cells transfected with GPCR-VN and GPCR-VC at 1:1, fixed with 4% paraformaldehyde, reconstituted Venus imaged by confocal microscopy
[2] = molecular target: CXCR4-VC (human) (UniProt P61073); test: as above
[3] = molecular target: CXCR4-VN (human) (UniProt P61073); test: as above
[4] = molecular target: Myc-CXCR4 (human) (UniProt P61073); test: proximity ligation; PLA (NaveniFlex MR) on fixed transfected HEK293A cells with mouse anti-CXCR4 and rabbit anti-HA antibodies
[5] = molecular target: CXCR4 (endogenous, MDA-MB-231 cells) (human (endogenous in MDA-MB-231)) (UniProt P61073); test: proximity ligation; PLA on fixed MDA-MB-231 cells (sgScramble control and LPAR1 knockout) with M1/M2 probe-conjugated anti-CXCR4 and mouse anti-LPA1 antibodies; endogenous receptors
[6] = molecular target: CXCR4 (adenoviral BiFC screen, VN or VC fusion) (human) (UniProt P61073); test: split reporter; high-throughput adenovirus-based BiFC screen in U2-OS cells cotransduced with GPCRx-VN and GPCRy-VC; preliminary study, data not shown
[7] = molecular target: Flag-CXCR4-VN (human) (UniProt P61073); test: split reporter; BiFC: HEK293A cells transfected with GPCR-VN and GPCR-VC at 1:1, fixed with 4% paraformaldehyde, reconstituted Venus imaged by confocal microscopy

“HA-μOR-VN (from UniProt P35372 1-400) (receptor)” was tested, and the binding [1] was “no binding”.

In the case of “Flag-LPA1-VN (from UniProt Q92633 1-364) (receptor)”, the binding [2] is reported as “binds”.

“Flag-LPA1-VC (from UniProt Q92633 1-364) (receptor)” was tested, and the binding [3] was “binds”.

For “HA-μOR (from UniProt P35372 1-400) (receptor)”, the binding [4] was “no binding”.

For “LPA1 (endogenous, MDA-MB-231 cells) (from UniProt Q92633 1-364) (receptor)”, the binding [5] was “binds”.

For “LPA1 (adenoviral BiFC screen, VN or VC fusion) (from UniProt Q92633 1-364) (receptor)”, the binding [6] was “binds”.

In the case of “HA-μOR-VC (from UniProt P35372 1-400) (receptor)”, the binding [7] is reported as “no binding”.

For “HA-LPA1 (from UniProt Q92633 1-364) (receptor)”, the binding [4] was “binds”.
